From patent US20250213529A1, “5-METHOXY-N.N-[…][…] THE TREATMENT OF PSYCHOMOTOR RETARDATION” (GH RESEARCH IRELAND LIMITED, priority 2022, published 2025)

Test system: patients with treatment-resistant major depressive disorder (TRD)
Assay: Phase 1/2 clinical trial in patients suffering from TRD
Conditions: for Patients experiencing at least one ADR: n=4

COc1ccc2[nH]cc(CCN(C)C)c2c1 [5-MeO-DMT]
Changes in safety laboratory analyses, vital signs, psychiatric safety assessments, measures of cognitive function (Part A and Part B): No clinically significant changes
Severity and outcome of ADRs (Part A, 12 mg and 18 mg groups): all of which were mild and resolved spontaneously
Patients experiencing at least one ADR (Part A, single 12 mg inhaled): 3 of 4
Patients experiencing at least one ADR (Part A, single 18 mg inhaled): 3 of 4
Outcome of ADRs (Part B, IDR): All ADRs resolved spontaneously
